“And” between values parts separate entries of the source, which are not always exact repeats. Identical values can stand only once.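 Grown in 96-well plates, cells were treated for 48 hours with each compound at five concentrations. Insufficient inhibition: endpoint recorded as highest concentration tested. GI50 marks 50% less growth. Definition used: TGI = concentration required for complete inhibition of growth.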
Test system: NCI-H322M lung
Test: DTP human tumour cell line panel, 48 h

Structure (SMILES)	TGI	GI50
C[N+](C)(C)CCC(=O)CC[N+](C)(C)C	> 100 µM	–
O=C(NCCCOC(=O)CCCCCCCCC(=O)OCCCNC(=O)NC(=O)c1c[nH]c(=O)[nH]c1=O)NC(=O)c1c[nH]c(=O)[nH]c1=O	> 100 µM	–
Cc1ccc(S(=O)(=O)NC(=O)Nc2nnc(S(N)(=O)=O)s2)cc1	> 100 µM	–
FC(F)(F)c1cccc(-c2nc3nc(Cl)c(Cl)nc3[nH]2)c1	12.4 µM	–
C/C=C/C(C#N)O[Si](C)(C)C (configuration not stated)	> 100 µM	–
CN(C)CCNC(=O)Cn1ccc(=O)c2cc([N+](=O)[O-])ccc21	> 100 µM	–
CN1CCC(CNc2cc(C3(C(=O)Nc4cc(C(=O)Nc5ccc(Cl)c(C(F)(F)F)c5)ccc4F)CC3)ncn2)CC1	5.45 µM	2 µM
COC1CC(N)(c2ccccc2)C(O)C(C)O1 (configuration not stated)	> 100 µM	–
C=CCC1(C#N)C(=S)NC2=C(C(=O)CC(C)(C)C2)C1c1ccccc1 (configuration not stated)	64.4 µM	–
O=C(N/N=C/c1ccccc1O)N/N=C/c1ccccc1O	> 100 µM	–
CC1CC(C)CC(C)C(O)/C(C#N)=C/C=C/CC(C2CCCC2C(=O)O)OC(=O)CC(O)C(C)C1 (configuration not stated)	0.28 µM and 0.241 µM	0.0419 µM
O=C(Nc1ccccc1F)c1cc2ccc(O)cc2oc1=Nc1cccc(F)c1	15.9 µM	–
COc1ccc2c(c1)C(=O)/C(=C/c1cccc(OCC(=O)c3ccccc3)c1)CC2	> 100 µM	> 100 µM
Fc1ccc(C(OCCN2CCN(CCCc3ccccc3)CC2)c2ccc(F)cc2)cc1	20.8 µM	–
CC(=O)NC1C(OCc2ccccc2)OC(CO)C(O)C1OCC(=O)N1CCCC1C(=O)N[C@@H](CCC(=O)NCCCCNc1c2ccccc2nc2cccc([N+](=O)[O-])c12)C(N)=O (some centres not stated)	71 µM	–
Cc1ccc2c(c1)-c1nc(N)c(C#N)c(-c3ccc(Cl)cc3)c1CCS2(=O)=O	92.4 µM	–
Cc1ccc(Nc2nc3[nH]ccc3c(=O)[nH]2)cc1	> 100 µM	–
CN(C)CCNc1ccc2c(=O)n(CCN(C)C)c(=O)n3c4ccc(O)cc4c(=O)c1c23	0.258 µM	–
COc1ccc([C@H]2[C@H]3COC(=O)[C@H]3C(C#N)=C3Sc4ccccc4N32)cc1	> 100 µM	–
COC(=O)c1sc(C(=O)OC)c2c1CS(=O)C2	> 100 µM	–
O=C1C[C@H]2CCCN2[C@@H](c2ccccc2)C1	> 100 µM	–
C[C@@H]1OC(=O)C[C@H]2CC(=O)N(CCC3CN(C(=O)OCc4ccccc4)c4ccccc43)C[C@@H]21 (some centres not stated)	> 100 µM	–

Structure (SMILES)	TGI	GI50
CC(=O)Nc1ccc(-c2cc(C(=O)O)c3cc4ccccc4cc3n2)cc1	> 100 µM	–
Cc1ccc(C(=N)c2ccccc2Cc2cccc3ccccc23)c2ccccc12	> 100 µM	–
CC1=C([Se]CC(OC(=O)CC[Se]c2ccccc2)C(=O)NC(C)(C)C)C(=O)c2ccccc2C1=O (configuration not stated)	2.72 µM	0.422 µM
Cn1ncc(-c2ccc3c(=O)[nH]nc(CN)c3c2)c1-c1c(F)c(Cl)cc(OC2CC2)c1C#N	52.5 µM and 36.7 µM	18.1 µM and 13.9 µM
N=C1C(=N)c2ccccc2-c2ccccc21.[Cl-].[Ru+2].c1ccc(-c2ccccn2)nc1.c1ccc(-c2ccccn2)nc1	> 100 µM	–
CCc1n[nH]c(=O)n1CCCCCCCCCCCCn1c(CC)n[nH]c1=O	> 100 µM	–
N#CC(N)=Nc1ccccc1	> 100 µM	–
O=C(Nc1cccc(Cl)c1)Nn1cnnc1	> 100 µM	> 50 µM
CCOc1ccccc1CCN=C1NC(=O)/C(=C/c2ccc3ncccc3c2)S1	> 25 µM	1.26 µM
CC1=NNC(=O)C1C1C(=O)NN=C(c2c[nH]c3ccccc23)C1Br (configuration not stated)	> 100 µM	–
COc1cc(/C=C2\C(=O)N(c3cccc([N+](=O)[O-])c3)C(c3ccccc3)S2(=O)=O)cc(OC)c1OC (configuration not stated)	> 100 µM	–
CC(=O)OCc1c2ccccc2c(C)c2c1cc(F)c1ccccc12	> 100 µM	–
IC[P+]1(c2ccccc2)CCCC1	67.7 µM	–
Cn1c(=O)c(N=Nc2c(=O)n(C)c(=O)n3c2[nH]c2ccccc23)c2[nH]c3ccccc3n2c1=O	> 100 µM	–
O=c1[nH]c(Nc2ccccc2)nc2c1ncn2CC(O)CSCCO (configuration not stated)	> 100 µM	–
c1ccc(/C(=N/Nc2nc3ccccc3s2)C2CCCCC2)nc1	26.3 µM	–
Cc1ccc(C)c(NC(=O)C(=O)C(C(=O)c2ccc3ccccc3c2)C2OC(=O)c3ccccc32)c1 (configuration not stated)	57.4 µM	–
CCC1(O)C(=O)OCc2c1cc1n(c2=O)Cc2cc3ccccc3nc2-1 (configuration not stated)	0.943 µM	–
Cn1c(=O)c2c(nc3n(CC(O)CCl)c(=O)ccn23)n(C)c1=O (configuration not stated)	> 100 µM	–
CCc1c2c(nc3ccc(OCc4ccc(B(O)O)cc4)cc13)-c1cc3c(c(=O)n1C2)COC(=O)[C@]3(O)CC	> 24.6 µM	0.0992 µM
C[C@@]1(O)C2CC3CC1(c1ccccc1)CC(/C3=N/O)/C2=N\O (some centres not stated)	> 100 µM	–
Oc1cc(Cc2ccccc2)c(Cc2ccccc2)cc1O	> 10 µM	–

Reference: PubChem BioAssay (NCI)
